Source: PMC12136788
This is one part of the list.

T1: UNK ZnF1-3 (human, UniProt Q9C0B0 31-174)
T1 sequence: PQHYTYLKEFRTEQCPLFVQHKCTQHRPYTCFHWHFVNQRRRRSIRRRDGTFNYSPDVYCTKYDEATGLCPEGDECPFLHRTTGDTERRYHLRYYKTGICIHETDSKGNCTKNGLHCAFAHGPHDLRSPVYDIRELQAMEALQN

B1: chr14:62224477:62224478:+_ENSMUSG00000035235_ENSMUST00000039562|mus_hu|motif|central (ssRNA)
RNA: GGGAGUUCUACAGUCCGACGAUCUUCAUUGAAAAUGAAAAACCCAUCUGUCACCUGUUCCCAGUAAAAAACUGAUUGUUCGGUGAAAUCGGCUGUUUUAGUCAGAUAGGAACUGAAGUUUGAAAGACAGCCUUUCCAAGUUGCCAACAGAGGAUUGAGCAUCA
B2: chr5:67446008:67446009:+_ENSMUSG00000037736_ENSMUST00000038188|mus_hu|FALSE|FALSE (ssRNA)
RNA: GGGAGUUCUACAGUCCGACGAUCUACCUCCAAAGGUAAGUAACACAAAUGUUUCAGGAUUACAGUAUAUAUUAUCAAACUAGUGUCUUUGCAUUAAAAACAAAUUAUAGCUCAGAGAUAGAGCUUGCUGUGAUGUUUAGUUUCCAACAGAGGAUUGAGCAUCA
B3: chr12:103220134:103220135:+_ENSMUSG00000041781_ENSMUST00000047357|mus_mus|FALSE|FALSE (ssRNA)
RNA: GGGAGUUCUACAGUCCGACGAUCAGAGAGGGUGGUUAACUUGAUGAUAGAUGUCAUCUUUCUGGUCCAGUAAUGGGUAGCUAAAAGGGCCUGCCAGGCCAAUCUCCCCCCGGCACCGUCCGCCGCCCUUCCCAACCCCUAGUGCAACAGAGGAUUGAGCAUCA
B4: 100943914_100944342_96_5pUTR_ENSMUSG00000001755_ENSMUST00000001806|mouse|control|control (ssRNA)
RNA: GGGAGUUCUACAGUCCGACGAUCCUGAGCGGAACACGGCCAUGCUCUCCAGGCACCGCCGUGGAGGCGUCCUAGGCUGCAGCCCGGAAGCACUACCCACCAGCCUCAAAGCGUGGAGCUACGGGAACUCAGAGCAAUCAAACACAACAGAGGAUUGAGCAUCA
B5: 20483050_20486938_462_CDS_ENSG00000112242_ENST00000535432|human|control|control (ssRNA)
RNA: GGGAGUUCUACAGUCCGACGAUCAUAUGUAACAUAAGCUAACCUUUGAUUCUCUGAAUCCUCGGUUAACAGUUUGAGGUCCAGGGUGCAGCUUUGGAUCAGUUCAUCUAAUUUCUUCUCUUCCUGACUGAGCUCGGUCACUUCCAACAGAGGAUUGAGCAUCA
B6: chr6:30774501:30774502:-_ENSMUSG00000025607_ENSMUST00000048774|mus_hu|FALSE|FALSE (ssRNA)
RNA: GGGAGUUCUACAGUCCGACGAUCGAGGGUGGUGAUGGCCAGCGUGGCAAUGCUGCGGUUUGAAUCUGUGACCAGGUUCUCCAGAUCCAGAUUACAAGCUGUCACAGCUGACGGAUGCUUCAUGGCAACCUUAUUGAGGGUACGCAACAGAGGAUUGAGCAUCA
B7: chr1:46159212:46159213:+_ENSG00000159596_ENST00000372025|hu_mus|hu_hu_hu_mus_True|18_108 (ssRNA)
RNA: GGGAGUUCUACAGUCCGACGAUCUCUGAUCCCACCCAAGAAAGCUAGGAAACCGGCUCCAUAAGCCAUCUGAGUGAAAGCUAGGACGGGGAUAUAAGACUUUGUUAUUACCAUGAGCAGUGGUGGAGCAGUAAAGGGGAUUAACAACAGAGGAUUGAGCAUCA
B8: chr7:97619395:97619396:-_ENSMUSG00000030614_ENSMUST00000032843|mus_hu|FALSE|FALSE (ssRNA)
RNA: GGGAGUUCUACAGUCCGACGAUCCAAUGAUGCAUAUGUCUUCAAAGCAUCAUGUUUAACCUUGAAGCAGCGUCUGAACAGGAAGUUUGAGAAUAUUCCAGAGAAACCAGCUGUUGUUCCAAAUGUCGCCAUUUGAUAUAUAUUCAACAGAGGAUUGAGCAUCA
B9: chr4:76721835:76721836:+_ENSG00000138768_ENST00000264904|hu_mus|hu_hu_hu_mus_True|38_88 (ssRNA)
RNA: GGGAGUUCUACAGUCCGACGAUCGUUUGGCUGGGGUUUCUGAGACGUCUGGAAUACUAACUCAUGUUUGCUAAUAAAUCCUAGUUUCUCUAUGAAAUCUCUUUGCCCAAUCCUCUUCUCUAUUAGUUGCUUUAGUUUCUCUUUCAACAGAGGAUUGAGCAUCA
B10: chr1:127300101:127300102:-_ENSMUSG00000026341_ENSMUST00000027579|perfect_dup|FALSE|FALSE (ssRNA)
RNA: GGGAGUUCUACAGUCCGACGAUCAGUAUACUGUUUAAUCCAUUUUGACCCAUCUGUAUCAUACUUGUUAAAUUCUUUUACUAAAUCUGGGCAGACAUAACUAUAGCGCUCCUUUACUGCCUUAGCAGUUUCCAAGGAUUGUUCCAACAGAGGAUUGAGCAUCA
B11: 36893413_36894925_731_3pUTR_ENSMUSG00000034243_ENSMUST00000039855|mouse|control|control (ssRNA)
RNA: GGGAGUUCUACAGUCCGACGAUCCCUCAAUUUCUGUUGCAUCUCUGUUUCCACAUCUGACUGGGUUACUAACUGAAGGAGCUCAUCUUCAUGGAGACGAACCUGUGUUUCAAAGCGGGCGUCUUUCUCUCGGACCACCUGCUGCAACAGAGGAUUGAGCAUCA
B12: chr17:60642451:60642452:+_ENSG00000146872_ENST00000343388|hu_mus|FALSE|FALSE (ssRNA)
RNA: GGGAGUUCUACAGUCCGACGAUCUUCCUGUUGCUUGAUGAGGUUUUGGAAAGCAUAACCAUCUGUCCACUGCUCAGUAAACGAGGCUCCAUGCCGGACAGUAGUAAAGUGGCCUAAUCGCAAUCGGUCCUGCAUGCUCUUAUCCAACAGAGGAUUGAGCAUCA
B13: 20082194_20113866_740_CDS_ENSG00000114166_ENST00000263754|human|control|control (ssRNA)
RNA: GGGAGUUCUACAGUCCGACGAUCGUUAGGGUUUUUCCAGCCAUUACAUUUACAAGACUCCUCGGCCUUGCAGGCGGAGUACACUCCGAGUUUCUCCAGUUUCUUGGCCCGCGGAGCGGAGCGUAGUUGCGCUUUCUUCACGGCCAACAGAGGAUUGAGCAUCA
B14: chr1:118502009:118502010:+_ENSG00000065183_ENST00000349139|hu_hu|motif|central (ssRNA)
RNA: GGGAGUUCUACAGUCCGACGAUCCGUUAGAAUCAACUUCUCCCUCUUUUUCCUCUUCCUCUUCUUCUCUUCCAAGUGGCGGGUAGCAUCAGCAAAAAACAUAACUUCACUUUUUGCCUCGCAUUCCCUCUUGAGAUAAUCAAGCAACAGAGGAUUGAGCAUCA
B15: chr4:57314706:57314707:+_ENSG00000128050_ENST00000264221|hu_mus|hu_hu_hu_mus_True|18_78 (ssRNA)
RNA: GGGAGUUCUACAGUCCGACGAUCCAGAAUUUCAAAAAUAGCUUGUGUGGCAUGACUCAUGAUAUCCACUUCAGUCUGCCCUAUAACAAGGCCAGCAAAACAGAAUUUUGCAGCAAUCAGCUGUUCCUCAGACCACUGUGGAUCCAACAGAGGAUUGAGCAUCA
B16: chr3:10015032:10015033:+_ENSMUSG00000027533_ENSMUST00000029046|mus_mus|mus_mus_mus_hu_True|28_48 (ssRNA)
RNA: GGGAGUUCUACAGUCCGACGAUCGUUUUUACCAUCACAAGUGAUGAUACAAUCUGGCUUGGCCAUUGCGCCCAUUUUUCGCAAAGCCAGUCCUACUCCUAGCUCCUUCAUGUACUCAUCAAAGCCUUUGCUGUCCACCAGGCGCAACAGAGGAUUGAGCAUCA
B17: chr2:97007812:97007813:+_ENSG00000121152_ENST00000240423|hu_hu|FALSE|FALSE (ssRNA)
RNA: GGGAGUUCUACAGUCCGACGAUCGGACAGUUUGAUACAGGUGGAGUAAUGUUCCGUAAUCUGCGUGUUUGUAAACUUGGGGAUAGUAGCUGAAAUGUCAAUACUCCUGCUGGAGGGGGAGGCCAAUAAGCGAGGUGAGUCAGUCAACAGAGGAUUGAGCAUCA
B18: chr14:55655841:55655842:-_ENSG00000126787_ENST00000247191|hu_mus|FALSE|FALSE (ssRNA)
RNA: GGGAGUUCUACAGUCCGACGAUCCACCCUGUGUCUGUUCUCCUUCUGAGACAGAGACUUUCUAUGAGCCAAGUUGGUUCUAACCAUCUCAGUGCUCGAGUCUUUCCGAAACCGACUGGCAAAACGUGACACCAGCAUCCUGAACAACAGAGGAUUGAGCAUCA
B19: 16684005_16685927_4424_CDS_ENSG00000145555_ENST00000513610|human|control|control (ssRNA)
RNA: GGGAGUUCUACAGUCCGACGAUCGGCACACACAGAAUCAAUCAGCCCCACAUCCAAGGUGCCCACAGCAUUCUGUGGGUUUGCCUGCUCAUCAUGCAUCUCCUGGAUCUCCUGGUCCGUGGACGCGUGGACCUGACUCAGCACCAACAGAGGAUUGAGCAUCA
B20: chr7:108212191:108212192:+_ENSG00000128590_ENST00000249356|hu_mus|FALSE|FALSE (ssRNA)
RNA: GGGAGUUCUACAGUCCGACGAUCGUUAUCAUUAAAAUGCAGAUUGCAAAGACGAAAACUGACUGUGGAGUAGCCAUUUCUAAUAACCUGUGCGCCCCGACGCAGCUUCUCCACAGCGCGGCGGCCCGGCUCCGGUUCCCUGACCAACAGAGGAUUGAGCAUCA
B21: chr2:198351390:198351391:-_ENSG00000144381_ENST00000345042|hu_hu|hu_hu_hu_mus_False|18_28 (ssRNA)
RNA: GGGAGUUCUACAGUCCGACGAUCUCAUUCCCACCCUCCACAGAAAGGCUGCUUCUGAACUCUCAUGUGGUGACACAGCGCUACAGUCCUGAUGCUCACAGAACAGUAGUAAAAAUGCCUCAGUGAUAGUUGAAAGCAGGACACCAACAGAGGAUUGAGCAUCA
B22: chr1:40030818:40030819:+_ENSMUSG00000026074_ENSMUST00000163854|mus_mus|FALSE|FALSE (ssRNA)
RNA: GGGAGUUCUACAGUCCGACGAUCUGGAGGGCUCUUCUUAAUGAAAGCACCAUAGUACGUGGCAAUAUUUCGAUGAUGAGAAUACUUCUUCAGCAUAUUUAUCUCCAGUUUGAUUUCUUCCUCUUCAUCCUCGGUGACGUCCAUCAACAGAGGAUUGAGCAUCA

These binders were tested against T1, UNK ZnF1-3 (assay: nsRBNS (natural sequence RNA bind-n-seq); RBNS binding buffer (assumed for nsRBNS): 25 mM Tris pH 7.5, 150 mM KCl, 3 mM MgCl2, 0.01% Triton X-100, 500 ug/ml BSA, 20 U/ml SUPERase-In, 4 C; UNK is unkempt and MSI1 is Musashi-1; names of the RNAs are library labels; protein concentration not given here; high values mean tight binding).

Row | Binder | binding signal [enrichment R]
1 | B1 | 0.837
2 | B2 | 0.764
3 | B3 | 0.52
4 | B4 | 1.29
5 | B5 | 0.769
6 | B6 | 0.69
7 | B7 | 1.6
8 | B8 | 0.76
9 | B9 | 0.439
10 | B10 | 0.437
11 | B11 | 0.594
12 | B12 | 1.16
13 | B13 | 0.429
14 | B14 | 0.844
15 | B15 | 1.09
16 | B16 | 0.653
17 | B17 | 1.22
18 | B18 | 0.793
19 | B19 | 0.684
20 | B20 | 1.12
21 | B21 | 1.34
22 | B22 | 0.836
